Test results taken from PubChem BioAssay AID651820 (National Center for Advancing Translational Sciences (NCATS), 2012).
Among all 340,000 compounds or so, about 12,000 (3.5%) were called active. Inconclusive results, whose numbers are uncertain, are shown with a selection of clear calls. Calls follow the shape of the dose curve; as a rule, active = well fitted inhibition curve with a large enough effect; inconclusive = small, poorly fitted or top-dose-only effect, or another doubt; inactive = no such curve, though single readings can be large or run the other way. Potencies of inconclusive entries are left out as doubtful fits.

Assay: qHTS Assay for Inhibitors of Hepatitis C Virus (HCV)
Details: Huh7.5.1 HCVcc-Cre (HCVcc is cell-culture hepatitis C virus) infection, luciferase reporter, 44 h; activity change, negative = inhibition: at 41.8 µM (top of the series) unless noted
Procedure, shortened: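 Cells seeded at 1,000/well and cultured 4 h, then compounds added followed by HCVcc-Cre virus (~0.5 moi). After 44 h further culture, luciferase substrate was added, plates held 15 min at room temperature, and luminescence read for 15 sec.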
% is scaled to controls: 0 for no effect and ±100 for the full control effect; potency is read from the fitted curve at half-maximal effect; tags tell the direction and shape of the fitted curve.

**Q.** For `CCOC(=O)c1ccc(NC(=O)C2CC(=O)N(c3ccc4c(c3)OCCO4)C2)cc1` (centres undefined), which “activity change, negative = inhibition” value is on record?
**A.** inactive: 7.75%

**Q.** With `COc1ccc(OCCCC(=O)Nc2nc(-c3ccccn3)cs2)cc1` as the compound, how does the Potency read?
**A.** inconclusive [inhibitor, partial curve]

**Q.** For `CC(O)COc1ccc(/C(=N/O)c2ccccc2)cc1` (centres undefined), which “activity change, negative = inhibition” value is on record?
**A.** inactive: 21.9%

**Q.** For `O=C(NCc1ccncc1)c1cc(-c2ccc(Cl)cc2)oc1C(F)(F)F`, which Potency is on record?
**A.** active: 11.2 µM

**Q.** For `Cc1cccc(C(=O)NCC(=O)OCCOc2ccccc2Cl)c1`, which “activity change, negative = inhibition” value is on record?
**A.** inactive: 6.33%

**Q.** With `CC(C)C(NC(=O)c1ccc(C(C)(C)C)cc1)C(=O)N1CCC(C(N)=O)CC1` (centres undefined) as the compound, how does the “activity change, negative = inhibition” value read?
**A.** inactive: 8.67%

**Q.** Which Potency does the source give for `CC1CCc2c(sc(NC(=O)C3=COCCO3)c2C(N)=O)C1` (centres undefined) here?
**A.** inconclusive [inhibitor, partial curve]

**Q.** Which Potency does the source give for `COc1ccc(NC(=O)CCNC(=O)c2ccc([N+](=O)[O-])cc2)cc1S(=O)(=O)N1CCCCC1` here?
**A.** inconclusive [inhibitor, single point]

**Q.** Which Potency does the source give for `COc1ccc(NC(=O)C(C)N=C2NS(=O)(=O)c3ccccc32)cc1S(N)(=O)=O` (centres undefined) here?
**A.** inconclusive [inhibitor, single point]

**Q.** Which Potency does the source give for `Cn1cc(CCNC(=O)CC2C(=O)NCCN2Cc2cccc(Oc3ccccc3)c2)cn1` (centres undefined) here?
**A.** inconclusive [inhibitor, single point]

**Q.** Which Potency does the source give for `CCN(CC)c1ccc(C2Nc3cccc4cccc(c34)N2)c(O)c1` here?
**A.** active: 11.2 µM

**Q.** For `O=C(O)c1ccc2oc(SCC(=O)N3CCCCC3)nc2c1`, which “activity change, negative = inhibition” value is on record?
**A.** inactive: 2.2%

**Q.** Which Potency does the source give for `COCCN1C=C2C(=O)C(C)(OC(=O)c3cccs3)C(=O)C=C2C=C1CCCC(=O)OC` (centres undefined) here?
**A.** inconclusive [inhibitor, single point]

**Q.** With `Cc1ccc(-c2cc(-c3ccco3)c3c(N)c(C(=O)NN)oc3n2)cc1` as the compound, how does the Potency read?
**A.** inconclusive [inhibitor, partial curve]

**Q.** With `CCn1c(CS(=O)Cc2ccc(Cl)cc2Cl)nnc1SCc1c(Cl)cccc1Cl` (centres undefined) as the compound, how does the Potency read?
**A.** inconclusive [inhibitor, partial curve]

**Q.** Which “activity change, negative = inhibition” value does the source give for `NC(=O)CC(NC(=O)Cc1cccc2ccccc12)c1ccc(NC2CCCC2)c([N+](=O)[O-])c1` (centres undefined) here?
**A.** inactive: -2.01%

**Q.** For `NNC(=O)COc1cccc2cccnc12`, which Potency is on record?
**A.** inconclusive [inhibitor, single point]

**Q.** For `COc1cc(/C=N\NC(=O)c2ccc(Cl)cc2)ccc1Oc1ccc([N+](=O)[O-])cn1`, which Potency is on record?
**A.** inconclusive [inhibitor, full curve]

**Q.** Which Potency does the source give for `CCOc1cccc(CN2CCCC(C(=O)Nc3cccc(-n4cccn4)c3)C2)c1` (centres undefined) here?
**A.** inconclusive [inhibitor, single point]

**Q.** For `CCOC(=O)N1CCN(S(=O)(=O)c2ccc(F)c(C(=O)Nc3cccc(Cl)c3C)c2)CC1`, which Potency is on record?
**A.** inconclusive [inhibitor, partial curve]

**Q.** For `O=C(/C=C/c1ccc(Br)cc1)Nc1ccc(S(=O)(=O)Nc2ncccn2)cc1`, which Potency is on record?
**A.** inconclusive [inhibitor, single point]

**Q.** For `Fc1ccc(-c2nc3c(-c4ccc(Cl)cc4)cnn3cc2CCN2CCOCC2)cc1`, which “activity change, negative = inhibition” value is on record?
**A.** inactive: -2.29%

**Q.** For `C/C(=N\NC(=O)C(C)Oc1ccc([N+](=O)[O-])cc1)c1ccccn1` (centres undefined), which Potency is on record?
**A.** inconclusive [inhibitor, full curve, poor fit]

**Q.** Which Potency does the source give for `COC(=O)c1ccc(NCc2cc(O)ccc2O)cc1O` here?
**A.** inconclusive [inhibitor, partial curve, poor fit]

**Q.** With `COc1ccc(N(C)S(=O)(=O)c2ccc3c(c2)CCN3C(=O)C2CC2)c(OC)c1` as the compound, how does the Potency read?
**A.** inconclusive [inhibitor, single point]

**Q.** For `Cc1ccc(S(=O)(=O)O)c(C)c1N1CCCC1=O`, which Potency is on record?
**A.** inconclusive [inhibitor, single point]

**Q.** Which Potency does the source give for `CCOc1ccc(CCNC(=O)CCNS(=O)(=O)c2ccc3c(c2)CCN3C(C)=O)cc1OCC` here?
**A.** inconclusive [inhibitor, partial curve]

**Q.** With `CCN1CCCC1CNC(=O)C(=O)NC(C)C` (centres undefined) as the compound, how does the “activity change, negative = inhibition” value read?
**A.** inactive: 21.6%

**Q.** With `CCn1c(SCC(=O)N/N=C/c2c[nH]c3ccccc23)nnc1-c1ccc(Cl)cc1` as the compound, how does the “activity change, negative = inhibition” value read?
**A.** inactive: -25.2%

**Q.** With `O=C(/C=C/c1ccco1)Nc1nnc(-c2ccco2)s1` as the compound, how does the “activity change, negative = inhibition” value read?
**A.** inactive: 2.88%

**Q.** Which Potency does the source give for `COCCCn1c(-c2ccc(OC)cc2)cc(C(=O)NC2CCCCCCC2)c1C` here?
**A.** inconclusive [inhibitor, single point]

**Q.** For `O=C(Nc1ccc(O)cc1)c1ccc(NC(=O)c2cccs2)cc1`, which Potency is on record?
**A.** inconclusive [inhibitor, full curve, poor fit]

**Q.** Which Potency does the source give for `COc1ccc(C(=O)c2ccc(N3CCOCC3)c([N+](=O)[O-])c2)cc1` here?
**A.** inconclusive [inhibitor, partial curve]

**Q.** Which Potency does the source give for `COc1ccc(Cn2c(=S)[nH]c3cc(C(=O)NCc4cccnc4)ccc3c2=O)cc1` here?
**A.** inconclusive [inhibitor, single point]

**Q.** Which “activity change, negative = inhibition” value does the source give for `Cc1cccc(NCc2nc3ccccc3n2Cc2ccccc2)c1` here?
**A.** inactive: -22.8%

**Q.** For `CCOC(=O)C1(CC2CC2)CCN(Cc2cnc(-c3ccccc3C)nc2)CC1`, which Potency is on record?
**A.** inconclusive [inhibitor, single point]

**Q.** For `CCCC(c1nnnn1Cc1ccc(OC)cc1)N1CCN(c2ccccc2OC)CC1` (centres undefined), which Potency is on record?
**A.** inconclusive [inhibitor, partial curve, poor fit]

**Q.** Which “activity change, negative = inhibition” value does the source give for `CCN(CC)S(=O)(=O)c1cccc(C(=O)NC2CCCCC2)c1` here?
**A.** inactive: 4.36%

**Q.** For `Cc1ccc(N(C(=O)Cn2nnc(-c3ccc(F)cc3)n2)C(C(=O)NC(C)(C)C)c2ccncc2)cc1` (centres undefined), which Potency is on record?
**A.** inconclusive [inhibitor, single point]

**Q.** Which Potency does the source give for `CCCN(CC(=O)Nc1ccc(F)c(F)c1F)C(=O)Cn1c(=O)cnc2ccccc21` here?
**A.** inconclusive [inhibitor, partial curve, poor fit]

**Q.** For `COc1cc(OC)cc(C(=O)N[C@H](C(=O)NCc2ccccc2)C(C)C)c1`, which Potency is on record?
**A.** inconclusive [inhibitor, single point]

**Q.** Which Potency does the source give for `O=C(/C=C/c1ccccc1Cl)c1cccnc1` here?
**A.** inconclusive [inhibitor, partial curve]

**Q.** Which Potency does the source give for `COc1cc(-c2cc(C(=O)Nc3c(Cl)cc(Cl)cc3Cl)c3ccccc3n2)cc(OC)c1OC` here?
**A.** active: 10 µM

**Q.** With `Cc1cccc(NC(=O)CSCC(=O)Nc2cc(Cl)ccc2N2CCOCC2)c1` as the compound, how does the Potency read?
**A.** inconclusive [inhibitor, partial curve]

**Q.** For `CN1C/C(=C\c2ccc(N3CCOCC3)cc2)C(=O)/C(=C/c2ccc(N3CCOCC3)cc2)C1`, which Potency is on record?
**A.** active: 11.2 µM

**Q.** For `Cc1ccnc(NC(=O)c2ccc(S(=O)(=O)NCc3ccco3)cc2)c1`, which Potency is on record?
**A.** inconclusive [inhibitor, single point]

**Q.** With `Cc1ccc(Cl)cc1NC(=O)C[n+]1ccc(Cc2ccc([N+](=O)[O-])cc2)cc1` as the compound, how does the Potency read?
**A.** inconclusive [inhibitor, single point]

**Q.** Which Potency does the source give for `COc1cc(C(CCN2CCCC(C)C2)c2c(OC)cc(OC)c3c(-c4ccccc4)cc(=O)oc23)cc(OC)c1OC` (centres undefined) here?
**A.** inconclusive [inhibitor, single point]

**Q.** Which Potency does the source give for `Cc1cccc(CS(=O)(=O)c2ncc(Cl)c(C(=O)Nc3ccc(F)cc3)n2)c1` here?
**A.** inconclusive [inhibitor, single point]

**Q.** Which Potency does the source give for `CCOc1ccccc1NC(=O)CN(c1ccc(OC)cc1)S(=O)(=O)c1c(C)noc1C` here?
**A.** inconclusive [inhibitor, full curve]

**Q.** Which “activity change, negative = inhibition” value does the source give for `Cc1ccc2nc(SC(C)C(=O)N3CCCC3)[nH]c2c1` (centres undefined) here?
**A.** inactive: 15%

**Q.** Which “activity change, negative = inhibition” value does the source give for `CCOC(=O)Cn1cc(C(=O)c2ccccc2F)c2ccccc21` here?
**A.** inactive: -17.6%

**Q.** With `CCN(CC)CCN(Cc1cc2cc3c(cc2[nH]c1=O)OCO3)C(=S)NCC(C)C` as the compound, how does the Potency read?
**A.** inconclusive [inhibitor, single point]

**Q.** Which Potency does the source give for `CC(C)c1nnc(NC(=O)c2nc(S(=O)(=O)Cc3ccc(F)cc3)ncc2Cl)s1` here?
**A.** inconclusive [inhibitor, single point]

**Q.** For `Cc1ccccc1N1CCN(C2=NC(=O)/C(=C/c3cn[nH]c3-c3ccccc3)S2)CC1`, which “activity change, negative = inhibition” value is on record?
**A.** inactive: 15.4%

**Q.** For `CCOC(=O)c1c(C)[nH]c(C2=NNC(=NC(C)COC)SC2)c1C` (centres undefined), which Potency is on record?
**A.** inconclusive [inhibitor, full curve]

**Q.** Which “activity change, negative = inhibition” value does the source give for `COC(=O)c1ccc2nc(NC(=O)CN3C(=O)CCC3=O)sc2c1` here?
**A.** inactive: -0.43%

**Q.** For `Cn1cc(C=C2C(=O)NC(=O)NC2=O)c2ccccc21`, which “activity change, negative = inhibition” value is on record?
**A.** inactive: -7.47%

**Q.** For `CC1=CC(=O)C=C(C)C1=NOS(=O)(=O)c1ccccc1`, which Potency is on record?
**A.** inconclusive [inhibitor, single point]

**Q.** Which Potency does the source give for `O=C(c1ccc(OC2CCN(C/C=C/c3ccc(F)cc3)CC2)cc1)N1CCCC1` here?
**A.** inconclusive [inhibitor, partial curve]

**Q.** With `O=[N+]([O-])c1cccc(Nc2c3ccccc3nc3ccccc23)c1` as the compound, how does the Potency read?
**A.** inconclusive [inhibitor, single point]

**Q.** Which Potency does the source give for `Cc1nc(SC(C(N)=O)c2ccccc2)c(C#N)c(C)c1C` (centres undefined) here?
**A.** inconclusive [inhibitor, single point]

**Q.** Which “activity change, negative = inhibition” value does the source give for `O=C(O)CCN1CCN(S(=O)(=O)c2ccc3ccccc3c2)CC1` here?
**A.** inactive: 15.4%

**Q.** For `N#Cc1c2ncn(CC(=O)c3ccc(Br)cc3)c(=O)c2c2n1CCC2`, which Potency is on record?
**A.** inconclusive [inhibitor, full curve]

**Q.** With `COc1ccc2[nH]cc(C(=O)CN(C)C)c2c1` as the compound, how does the “activity change, negative = inhibition” value read?
**A.** inactive: 1.27%

**Q.** With `CC(C)Oc1ccc(C(=O)Nc2ccc(N3CCCCC3)cc2)cc1` as the compound, how does the “activity change, negative = inhibition” value read?
**A.** inactive: -13.9%

**Q.** For `CN(C)Cc1ccccc1Sc1cccc2ccccc12`, which Potency is on record?
**A.** inconclusive [inhibitor, single point]

**Q.** With `CC(Cl)C(=O)Nc1cc(C(C)(C)C)nn1-c1ccccc1` (centres undefined) as the compound, how does the “activity change, negative = inhibition” value read?
**A.** inactive: 9.98%

**Q.** Which Potency does the source give for `CC(=O)c1c(C)[nH]c(C(=O)Nc2ccc(Cl)c(S(=O)(=O)N3CCOCC3)c2)c1C` here?
**A.** inconclusive [inhibitor, full curve]
